This is one part of the list.

22 molecules from article PMC12136788 can be followed below.

B1: chr3:50299934:50300035:-|3pUTR|ENSG00000114378|unk|FALSE|unique (ssRNA)
RNA: GGGAGUUCUACAGUCCGACGAUCCGUUGCCCAAGGUUGCACAGCAAGAAAAGGGAGAAGUUGAGAUUCAAACCCAGGCUGUCUAGCUCCGGGGGUACAGCCCUUGCACUCCUACUGAGUUUGUGGUAACCAGCCCUGCACGACCAACAGAGGAUUGAGCAUCA
B2: ENSG00000107863:be:win_3301|CDS|ENSG00000107863|bound_else_gene|NA|bound_elsewhere_windowed (ssRNA)
RNA: GGGAGUUCUACAGUCCGACGAUCAAGGAAGAGUCGGAAAGGAAACUUCUCAGUAAAGAUGAUACCAGUCCCCCAAAAGACAAAGGCACAUGGAGAAAAGGCAUUCCAAGUAUCAUGAGAAAGACAUUUGAGAAAAAGCCAACUCAACAGAGGAUUGAGCAUCA
B3: chr6:136999970:137001557:-|three_prime_utr|ENSG00000016402|control|control|control (ssRNA)
RNA: GGGAGUUCUACAGUCCGACGAUCAAGUUUUUUCCAGUUUGUCAGUGUCUGUGAGAAUUACUUAUUUCUUUUCUCUAUUCUCAUAGCACGUGUGUGAUUGGUUCAUGCAUGUAGGUCUCUUAACAAUGAUGGUGGGCCUCUGGACAACAGAGGAUUGAGCAUCA
B4: chr1:17067826:17067927:-|3pUTR|ENSG00000117115|msi1|total|mutant (ssRNA)
RNA: GGGAGUUCUACAGUCCGACGAUCCCAGAUUCAUUCCCUGGCUCCAACUGAAAAGACUCAGUUUCAAUCGUUAAAAGUUCCUUCCGGGCCAGAAGAAUAAAUGAAUUAUAAUCCCAUUUUGAAGAACCGAUUUAUAACCAAUGACAACAGAGGAUUGAGCAUCA
B5: chr6:37331633:37331734:+|3pUTR|ENSG00000065491|unk|total|mutant (ssRNA)
RNA: GGGAGUUCUACAGUCCGACGAUCCCGUUCCCCUUCUGCCCCAGUCUGAGCCAGUGAGGGGCCGCUUUUUAAAACCAUUAUUCCCGAUGGAGGAGGCACUGAUGCUUGUAACUCUGGAAAGAGGCCUACACCCAAGGGCCCGGACAACAGAGGAUUGAGCAUCA
B6: ENSG00000124766:be:win_1501|3pUTR|ENSG00000124766|bound_else_gene|NA|bound_elsewhere_windowed (ssRNA)
RNA: GGGAGUUCUACAGUCCGACGAUCGACAGACGAAGAGUUUAAAGAGAAAAGGGAAAAAAGAAAGAAAAAGUAAGCAGGGCUGGCUUCGCCCGCGUUCUCGUCGUCGGAUCAAGGAGCGCGGCGGCGUUUUGGACCCGCGCUCCCCAACAGAGGAUUGAGCAUCA
B7: chr20:59938049:59938150:-|3pUTR|ENSG00000132825|unk|FALSE|unique (ssRNA)
RNA: GGGAGUUCUACAGUCCGACGAUCAAGUUUGAAACUAAGCAUUUUAAGAAGUCUUGCCUCAGUUAUUUCAGUUUUCAGGUGACUAGAGAAUUUCAGGCAACAGUGCCCUUUGCAAUUACCUUUUUGAUGAUUAAGGUGACUAUUCAACAGAGGAUUGAGCAUCA
B8: chr3:64018827:64018930:-|CDS|ENSG00000163636|unk|FALSE|unique (ssRNA)
RNA: GGGAGUUCUACAGUCCGACGAUCUGAACUCAUGGAUUAUAAAACAUUUGUGACUUAUACUGUCUAUGUCAGUAUGAUUGCCUUAGAAAGACCAGAUCUCAGGGAAAAGGUAAUGACCAAACUUUAAUACUCAAAUUUAAAGACCAACAGAGGAUUGAGCAUCA
B9: chr1:35190724:35191005:-|CDS|ENSG00000116560|unk|total|mutant (ssRNA)
RNA: GGGAGUUCUACAGUCCGACGAUCGCCCUUUCUGUUCGUAAUCUUUCACCUUAUGUUUCCAAUGAACUGUUGGAAGAAGCCUUCCGCCAAUUUGGUCCUAUUGAAAGGGCUGUUGUAACCGUGGAUGAUCGUGGAAGAUCUACACAACAGAGGAUUGAGCAUCA
B10: chr17:81509976:81510077:-|3pUTR|ENSG00000184009|msi1|total|mutant (ssRNA)
RNA: GGGAGUUCUACAGUCCGACGAUCUCUCGAUUCUUUGAAGAGAUGACAACAAAUUUUGGUUUUCUACUGUUAUGUGAGAACAUCCGGCCCCAGCAACACGUCAUUGUGUAAGGAAAAAUAAAAGUGCUGCCGUAACCAAUGAAUCAACAGAGGAUUGAGCAUCA
B11: chr12:6965580:6965681:-|3pUTR|ENSG00000215021|unk|total|mutant (ssRNA)
RNA: GGGAGUUCUACAGUCCGACGAUCGUCAUUAUCUAUCUUUUUUUUCCUACAGUGACAGCCUCAUCAAGGGUAAGAAAUGAGCCCCGUCACCAAGAACUCCACCCCCAGAGGAAGUGGAUCUGCUUCUCCAGUUUUUGAGGAGCCCAACAGAGGAUUGAGCAUCA
B12: chrX:30854639:30854752:-|CDS|ENSG00000157625|unk|FALSE|bound_elsewhere (ssRNA)
RNA: GGGAGUUCUACAGUCCGACGAUCUUCAGCUCUCCACAGCAUCAAGUGCAACCUUCCCAGUUGGGCCACAUCUUUAUGCCACCUAGUCCUUCAACUACUCCACCCCAUCCAUAUCAACAAGGACCUCCUAGCUAUCAGAAACAGCAACAGAGGAUUGAGCAUCA
B13: chr7:74121655:74121756:+|3pUTR|ENSG00000106683|msi1|FALSE|unique (ssRNA)
RNA: GGGAGUUCUACAGUCCGACGAUCGCCCCUUUCCACACGCCGCUGCCCCAGCAACCCUGUUCACGCUCCACCUGUCUGGUCCAUAGCUCCCUGGAGGCUGGGCCAGGAGGCAGCCUCCGAACCAUGCCCCAUAUAACGCUUGGGCAACAGAGGAUUGAGCAUCA
B14: ENSG00000198589:be:win_3701|CDS|ENSG00000198589|bound_else_gene|NA|bound_elsewhere_windowed (ssRNA)
RNA: GGGAGUUCUACAGUCCGACGAUCAGGCUUCUUCUGAGCAAAAGAUUGCGAAGUUGGAUGUUUCCAAUGUUGCUACAGAUACUGAGAGGCUGGAGUUGAAGGCCAGUCCCAACGUGGAAGCACCUCAACCUCAUCGACAUGUGCCAACAGAGGAUUGAGCAUCA
B15: chr4:25747873:25747886:-|3pUTR|ENSG00000091490|msi1_unk|FALSE|overlapping (ssRNA)
RNA: GGGAGUUCUACAGUCCGACGAUCUAGCAGUUAUAAGGCACCUUGAAAUAAAUUGUUUGUGCCUGGAAAUGCAGGGAGGGCAAUAGCUUUGUAAAUUGGUUUACAUUUUUCUCCUUGAAUUUUUCUAGGGUCCUAGUGCUUCCGCAACAGAGGAUUGAGCAUCA
B16: chr6:36855602:36855703:-|3pUTR|ENSG00000137168|msi1|total|mutant (ssRNA)
RNA: GGGAGUUCUACAGUCCGACGAUCGUCAUGAAGCUCCGGAGGCCUGGCAUCUUGGGUGAGUCCGAGAUGGAAGUACAUUUUAACCGGAUGCUUCUUUUCUCUUCCCCCAGUGCCCCGGUUGCCAGAGCAUUUGCACAAAUGCCCCAACAGAGGAUUGAGCAUCA
B17: ENSG00000198589:be:win_1901|CDS|ENSG00000198589|bound_else_gene|NA|bound_elsewhere_windowed (ssRNA)
RNA: GGGAGUUCUACAGUCCGACGAUCGUGGUAUCACCCCAAAAGGAUUAGAUGGACCGCGACCUAAUCAAAAAGAAAUGCUUUCUCUACGAGCAUUCUUGUUGAUGUUCAUUAAGCAAUUAGUGAUGAAGGAUUCUGGAGUAAAGGCAACAGAGGAUUGAGCAUCA
B18: ENSG00000198589:be:win_6051|CDS|ENSG00000198589|bound_else_gene|NA|bound_elsewhere_windowed (ssRNA)
RNA: GGGAGUUCUACAGUCCGACGAUCAGAUGAAGAUAUCCUUGCUAAAGGAAAACAGUCCAUCAGGAGUCAGGCUUUAGGAAAUCAGAACUCAGAAAACGAGAUCCUCCUGGAAGGCGAUGAUGAUACUCUGUCAUCCGUGGAUGACAACAGAGGAUUGAGCAUCA
B19: chr9:34664162:34665309:-|three_prime_utr|ENSG00000187186|control|control|control (ssRNA)
RNA: GGGAGUUCUACAGUCCGACGAUCGGACCCGCCCCGGGCAUGGACGGGACUCAGUCUCUGAGGACCCAUCGGGGGGAAUCCGGUAGCUCCCGCCCCGCCUCAUGCCAGUGUCGGGUCGCCCCACAGCUCGGCGCACCCCGGGGACAACAGAGGAUUGAGCAUCA
B20: ENSG00000198589:be:win_9251|3pUTR|ENSG00000198589|bound_else_gene|NA|bound_elsewhere_windowed (ssRNA)
RNA: GGGAGUUCUACAGUCCGACGAUCGGAAAUGCUCUUGAGCUCACAACAUUUGUUUUUCUUUUAAAGUAAAUGCAAGUACCAAAGCUCACUACUGCGGUUUGCCUGUGCCUGGACAAUGAGGCGGAGCCACUGUUGUUUUGUUGGCAACAGAGGAUUGAGCAUCA
B21: chr15:34752480:34753372:-|CDS|ENSG00000159248|control|control|control (ssRNA)
RNA: GGGAGUUCUACAGUCCGACGAUCCCCCUGCAUCAAGGAGGUGGAAUGUUAUGUGUCCCGGCCAACUGAGAAGACUGUCUUUCUAGUGUUCAUGUUUGCUGUAAGUGGCAUCUGUGUUGUGCUCAACCUGGCUGAACUCAACCACAACAGAGGAUUGAGCAUCA
B22: chr11:128839127:128840264:-|CDS|ENSG00000151704|control|control|control (ssRNA)
RNA: GGGAGUUCUACAGUCCGACGAUCAAGACAGUGGAAGUGGAGACCCCUCACUGUGCCAUGUGCCUUUAUAAUGAGAAAGAUGUUAGAGCCAGGAUGAAGAGAGGCUAUGACAACCCCAACUUCAUCUUGUCAGAAGUCAAUGAACAACAGAGGAUUGAGCAUCA

The target in this assay is MSI1 full-length (mouse, UniProt Q61474 1-362). Kind of assay: nsRBNS (natural sequence RNA bind-n-seq); RBNS binding buffer (assumed for nsRBNS): 25 mM Tris pH 7.5, 150 mM KCl, 3 mM MgCl2, 0.01% Triton X-100, 500 ug/ml BSA, 20 U/ml SUPERase-In, 4 C; UNK is unkempt and MSI1 is Musashi-1; names of the RNAs are library labels; protein concentration not given here; high values mean tight binding.
Sequence of UniProt Q61474 (Q61474 whole entry): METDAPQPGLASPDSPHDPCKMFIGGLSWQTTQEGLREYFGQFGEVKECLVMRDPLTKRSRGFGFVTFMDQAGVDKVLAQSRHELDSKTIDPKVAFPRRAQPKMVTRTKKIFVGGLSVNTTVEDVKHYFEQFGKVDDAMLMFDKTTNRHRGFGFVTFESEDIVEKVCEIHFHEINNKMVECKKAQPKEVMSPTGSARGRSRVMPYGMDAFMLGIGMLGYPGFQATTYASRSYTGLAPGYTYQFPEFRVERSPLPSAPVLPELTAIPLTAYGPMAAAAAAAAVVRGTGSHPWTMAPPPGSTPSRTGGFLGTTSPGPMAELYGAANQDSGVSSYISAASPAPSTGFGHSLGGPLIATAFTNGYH
In turn, B1 displayed a binding signal of 0.373 enrichment R.
To B2 belongs 0.359 enrichment R.
B3 had a binding signal of 0.793 enrichment R.
B4 gave a binding signal of 0.488 enrichment R.
Take B5: the binding signal came to 0.474 enrichment R.
Consider B6, for which the binding signal is 0.527 enrichment R.
The same measure for B7: 0.865 enrichment R; for B8: 0.403 enrichment R.
In turn, B9 gave a binding signal of 0.356 enrichment R.
B10 yielded a binding signal of 0.215 enrichment R.
The same measure for B11: 0.924 enrichment R.
In turn, B12 showed a binding signal of 1.34 enrichment R.
Molecule B13 showed a binding signal of 1.06 enrichment R.
Molecule B14 gave a binding signal of 0.294 enrichment R.
To B15 belongs 1.14 enrichment R; to B16, 0.299 enrichment R.
The molecule B17 had a binding signal of 0.39 enrichment R.
B18 came in with a binding signal of 0.27 enrichment R.
For the molecule B19, the binding signal is 0.3 enrichment R.
The molecule B20 yielded a binding signal of 0.354 enrichment R.
In turn, B21 displayed a binding signal of 0.35 enrichment R.
On to B22, for which the binding signal is 0.364 enrichment R.
